Paper PMC6212790
Some of the results follow. At the low end of the ranking, values are background and their order means little.

biological target: T1, GST-Rok-C97-191 (UniProt O34857); test: protein binding microarray; conditions: Rok is a gene silencer of Bacillus subtilis; high values mean tight binding; most listed sequences are background and not binding sites; double strand, one strand shown;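 note: rank score from −0.5 (least bound) to 0.5 (best bound)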
T1 sequence: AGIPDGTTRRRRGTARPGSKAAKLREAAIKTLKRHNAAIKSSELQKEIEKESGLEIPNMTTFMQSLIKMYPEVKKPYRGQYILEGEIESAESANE

| Sequence | binding signal |
| --- | --- |
| GTGAGCCA | -0.215 E-score |
| ACGAGTAA | 0.12 E-score |
| CTAAAGTC | 0.0658 E-score |
| CACCCGGA | -0.242 E-score |
| CGAAGTCG | -0.164 E-score |
| ATCGGTAG | 0.108 E-score |
| GAAGAGCA | -0.0308 E-score |
| ATCAGGCG | 0.0336 E-score |
| CGTGGCTA | -0.0449 E-score |
| TACTGATA | 0.21 E-score |
| GATCGGTA | 0.153 E-score |
| TAATAAGA | 0.319 E-score |
| CGCCCCGC | -0.287 E-score |
| TACCAATA | 0.295 E-score |
| ATGTGCGC | -0.0507 E-score |
| TATCCGAA | 0.154 E-score |
| CACAGACA | -0.323 E-score |
| CCTGGCGA | -0.142 E-score |
| ACTACATC | 0.334 E-score |
| AATAACGT | 0.198 E-score |
| GAGTAGCC | -0.273 E-score |
| CCCAGCGC | -0.242 E-score |

| Sequence | binding signal |
| --- | --- |
| AACTCCGT | -0.062 E-score |
| AACGAAAA | -0.055 E-score |
| GAAATGTC | 0.165 E-score |
| CGGATAGA | 0.174 E-score |
| GCAAAGCC | -0.284 E-score |
| AGCGTTTC | -0.225 E-score |
| CGGTAAGC | -0.14 E-score |
| GTACAGCA | 0.196 E-score |
| TCTGAACA | -0.166 E-score |
| ACTAGACT | 0.0777 E-score |
| ACAGCAAA | 0.0357 E-score |
| ATAGAAGA | 0.22 E-score |
| ATAGTTGG | 0.00189 E-score |
| ACAGCCTG | -0.163 E-score |
| CATAGTTA | 0.275 E-score |
| ACAGCTTC | -0.0851 E-score |
| ACTACATG | 0.307 E-score |
| ATAGATAG | 0.267 E-score |
| GCGTTACA | 0.0506 E-score |
| CGAGGGGC | -0.307 E-score |
| AGCACCAT | -0.0556 E-score |
| CTCAAGTC | -0.216 E-score |

| Sequence | binding signal |
| --- | --- |
| CTTGGAGA | 0.0338 E-score |
| CCACAGGC | -0.141 E-score |
| ACCACTGC | -0.0712 E-score |
| CGGTTTTA | 0.0315 E-score |
| CAGAAACC | -0.0393 E-score |
| AATCTGGA | -0.12 E-score |
| TGGAGGAA | -0.00731 E-score |
| GTAACAAC | 0.184 E-score |
| CCACGTGC | -0.411 E-score |
| AATTAACT | 0.287 E-score |
| CCCGGGCA | -0.326 E-score |
| GATAGACA | 0.058 E-score |
| ACCCGGGG | -0.207 E-score |
| CTATTGAG | 0.0169 E-score |
| AGTAAGTC | 0.247 E-score |
| AGTGTCAG | -0.0316 E-score |
| ACATTACA | 0.144 E-score |
| ATTTCGTC | 0.115 E-score |
| AGATGTCG | -0.206 E-score |
| ACAATTCT | 0.0549 E-score |
| TCAACCGA | -0.0752 E-score |
| CAGCGGAC | 0.0305 E-score |

| Sequence | binding signal |
| --- | --- |
| GAATAGTA | 0.325 E-score |
| CCACGTAC | -0.00117 E-score |
| GACGATGC | -0.0427 E-score |
| AATTTTGA | 0.199 E-score |
| CGAGATAA | 0.06 E-score |
| AAGTGTAA | 0.129 E-score |
| ATACTTTG | 0.151 E-score |
| ATAAATAC | 0.287 E-score |
| ATACCTCA | 0.138 E-score |
| ACACCACA | 0.171 E-score |
| GGAGTCTA | 0.0216 E-score |
| CTCGCGAC | -0.158 E-score |
| ACTTAATC | -0.000641 E-score |
| GGCCAATA | -0.0148 E-score |
| CACAAGTG | -0.00102 E-score |
| TAGCCACA | -0.0832 E-score |
| CGTGACCA | -0.101 E-score |
| GGGCCACA | -0.243 E-score |
| GACGTGGC | -0.0403 E-score |
| ACGATCCA | -0.0275 E-score |
